A lower IC50 marks a more sensitive line; a limit (>, <) means that the fit lies beyond the doses tested. For AUC the same curve is integrated over the 256-fold range of doses and scaled to a fraction: 1 means no effect, lower means more sensitive. For part of these data: Where the top dose is marked as inferred, it was calculated from the reported fits. For part of these data: Drugs with an entry number were screened twice under separate entries, and the two screens often disagree.
Columns and labels:
Assay in all cases: Viability of human cancer cell lines after 72 h of drug (GDSC screen)
Tamoxifen = compound: CC/C(=C(\c1ccccc1)c1ccc(OCCN(C)C)cc1)c1ccccc1 [Tamoxifen]; conditions: top dose 5 µM
Protocol: (§1)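 Human cancer cell lines in 384-well plates, medium with 10% serum, drug for 72 h over a 256-fold dose range (nine 2-fold or five 4-fold steps up to the top dose). Adherent lines were fixed and stained with the nucleic acid dye Syto60, suspension lines read with resazurin; signal relative to control wells, capped at 0 and 100%. One two-parameter sigmoid per drug and line, fitted in a mixed model over all curves with the slope shared within a line.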

VNLG/124 = compound: CCCC(=O)OCc1ccc(OC(=O)/C=C(C)/C=C/C=C(C)/C=C/C2=C(C)CCCC2(C)C)cc1 [VNLG/124]; conditions: top dose 5.12 µM; top dose inferred
Protocol: as §1

Elesclomol = compound: CN(NC(=O)CC(=O)NN(C)C(=S)c1ccccc1)C(=S)c1ccccc1 [Elesclomol]; conditions: top dose 0.2 µM; top dose inferred
Protocol: as §1

HG-5-88-01 = compound: COc1cc(N2CCC(C(N)=O)CC2)ccc1Nc1nc(N)c(Cl)c(Nc2ccccc2S(=O)(=O)C(C)C)n1 [HG-5-88-01]; conditions: top dose 10 µM; top dose inferred
Protocol: as §1

Bleomycin = compound: Cc1c(N)nc([C@H](CC(N)=O)NC[C@H](N)C(N)=O)nc1C(=O)N[C@H](C(=O)N[C@H](C)[C@@H](O)[C@H](C)C(=O)N[C@H](C(=O)NCCc1nc(-c2nc(C(=O)NCCC[S+](C)C)cs2)cs1)[C@@H](C)O)[C@@H](OC1OC(CO)C(O)C(O)C1OC1OC(CO)C(O)C(OC(N)=O)C1O)c1cnc[nH]1 [Bleomycin]
Protocol: as §1

Masitinib = compound: Cc1ccc(NC(=O)c2ccc(CN3CCN(C)CC3)cc2)cc1Nc1nc(-c2cccnc2)cs1 [Masitinib]; conditions: top dose 20 µM
Protocol: as §1

LAQ824 = compound: O=C(/C=C/c1ccc(CN(CCO)CCc2c[nH]c3ccccc23)cc1)NO [LAQ824]; conditions: top dose 1.024 µM; top dose inferred
Protocol: as §1

OSI-930 = compound: O=C(Nc1ccc(OC(F)(F)F)cc1)c1sccc1NCc1ccnc2ccccc12 [OSI-930]; conditions: top dose 10.24 µM
Protocol: as §1

BX-912 = compound: O=C(Nc1cccc(Nc2ncc(Br)c(NCCc3cnc[nH]3)n2)c1)N1CCCC1 [BX-912]; conditions: top dose 10.24 µM; top dose inferred
Protocol: as §1

NSC-87877 = compound: O=S(=O)(O)c1ccc2cc(N=Nc3cc(S(=O)(=O)O)c4cccnc4c3O)ccc2c1 [NSC-87877]; conditions: top dose 16 µM; top dose inferred
Protocol: as §1

[1] = top dose 50 µM, screen: GDSC drug entry 1378, top dose inferred
[2] = top dose 64 µM, screen: GDSC drug entry 190

Row | Cell Line | AUC (Tamoxifen) | IC50 (Tamoxifen) [µM] | AUC (VNLG/124) | IC50 (VNLG/124) [µM] | AUC (Elesclomol) | IC50 (Elesclomol) [µM] | AUC (HG-5-88-01) | IC50 (HG-5-88-01) [µM] | AUC (Bleomycin; [1]) | IC50 (Bleomycin; [1]) [µM] | AUC (Bleomycin; [2]) | IC50 (Bleomycin; [2]) [µM] | AUC (Masitinib) | IC50 (Masitinib) [µM] | AUC (LAQ824) | IC50 (LAQ824) [µM] | AUC (OSI-930) | IC50 (OSI-930) [µM] | AUC (BX-912) | IC50 (BX-912) [µM] | AUC (NSC-87877) | IC50 (NSC-87877) [µM]
1 | IHH-4 (thyroid, semi-adherent) | 0.992 | > 5 | 0.984 | > 5.12 | 0.068 | < 0.000781 | 0.989 | > 10 | 0.033 | < 0.195 | 0.178 | 0.571 | 0.91 | 18.2 | 0.423 | 0.0412 | 0.968 | > 10.2 | 0.987 | > 10.2 | 0.992 | > 16
2 | IST-MEL1 (melanoma, adherent) | 0.974 | > 5 | 0.982 | > 5.12 | 0.465 | 0.00986 | 0.935 | > 10 | 0.331 | 0.959 | 0.21 | 0.462 | 0.914 | > 20 | 0.411 | 0.0347 | 0.957 | > 10.2 | 0.941 | > 10.2 | 0.982 | > 16
3 | IST-SL2 (small cell lung carcinoma, suspension) | 0.977 | > 5 | 0.989 | > 5.12 | 0.833 | 0.127 | 0.987 | > 10 | 0.945 | > 50 | 0.052 | < 0.25 | 0.801 | 9.69 | 0.449 | 0.0465 | 0.957 | > 10.2 | 0.689 | 2.15 | 0.961 | > 16
4 | JEG-3 (urogenital system, adherent) | 0.989 | > 5 | 0.972 | > 5.12 | 0.505 | 0.0129 | 0.974 | > 10 | 0.273 | 0.766 | 0.612 | 7.85 | 0.919 | > 20 | 0.368 | 0.0289 | 0.974 | > 10.2 | 0.991 | > 10.2 | 0.95 | > 16
5 | JHH-1 (liver, adherent) | 0.961 | > 5 | 0.963 | > 5.12 | 0.598 | 0.0238 | 0.928 | > 10 | 0.805 | 27.8 | 0.489 | 3.72 | 0.854 | 18 | 0.276 | 0.0138 | 0.978 | > 10.2 | 0.938 | > 10.2 | 0.981 | > 16
6 | JHU-022 (head and neck, adherent) | 0.954 | > 5 | 0.981 | > 5.12 | 0.301 | 0.00294 | 0.883 | > 10 | 0.341 | 0.999 | 0.79 | 37.4 | 0.906 | > 20 | 0.654 | 0.192 | 0.982 | > 10.2 | 0.931 | > 10.2 | 0.977 | > 16
7 | JJN-3 (haematopoietic neoplasm, suspension) | 0.974 | > 5 | 0.971 | > 5.12 | 0.486 | 0.0116 | 0.961 | > 10 | 0.959 | > 50 | 0.863 | 39.8 | 0.724 | 4.68 | 0.395 | 0.035 | 0.926 | > 10.2 | 0.808 | 4.17 | 0.989 | > 16
8 | JURL-MK1 (chronic myeloid leukaemia, suspension) | 0.956 | > 5 | 0.976 | > 5.12 | 0.546 | 0.0167 | 0.984 | > 10 | 0.955 | > 50 | 0.348 | 1.52 | 0.294 | 0.329 | 0.417 | 0.0379 | 0.85 | 7.74 | 0.759 | 3.56 | 0.974 | > 16
9 | K2 (melanoma, adherent) | 0.976 | > 5 | 0.971 | > 5.12 | 0.656 | 0.0386 | 0.92 | > 10 | 0.734 | 18.1 | 0.639 | 10.9 | 0.949 | > 20 | 0.624 | 0.156 | 0.979 | > 10.2 | 0.982 | > 10.2 | 0.982 | > 16
10 | K5 (thyroid, adherent) | 0.986 | > 5 | 0.982 | > 5.12 | 0.439 | 0.00856 | 0.906 | > 10 | 0.193 | 0.403 | 0.767 | 22.8 | 0.875 | 18.2 | 0.444 | 0.0452 | 0.984 | > 10.2 | 0.932 | > 10.2 | 0.988 | > 16
11 | KCL-22 (chronic myeloid leukaemia, suspension) | 0.982 | > 5 | 0.962 | > 5.12 | 0.802 | 0.0804 | 0.986 | > 10 | 0.867 | 33.3 | 0.548 | 5.28 | 0.293 | 0.366 | 0.375 | 0.0307 | 0.861 | 6.5 | 0.803 | 4.14 | 0.984 | > 16
12 | KELLY (neuroblastoma, adherent) | 0.986 | > 5 | 0.958 | > 5.12 | 0.469 | 0.0104 | 0.953 | > 10 | 0.59 | 5.37 | 0.804 | 28.5 | 0.881 | 17.6 | 0.487 | 0.0593 | 0.973 | > 10.2 | 0.912 | > 10.2 | 0.982 | > 16
